This is one part of the list. The energies were worked out here from pooled read counts, against the library average; single values are noisy.
target: T1, Pho4 (S. cerevisiae) (UniProt P07270); assay: relative binding free energy (BET-seq); higher = weaker binding; details: reference: library average
T1 sequence: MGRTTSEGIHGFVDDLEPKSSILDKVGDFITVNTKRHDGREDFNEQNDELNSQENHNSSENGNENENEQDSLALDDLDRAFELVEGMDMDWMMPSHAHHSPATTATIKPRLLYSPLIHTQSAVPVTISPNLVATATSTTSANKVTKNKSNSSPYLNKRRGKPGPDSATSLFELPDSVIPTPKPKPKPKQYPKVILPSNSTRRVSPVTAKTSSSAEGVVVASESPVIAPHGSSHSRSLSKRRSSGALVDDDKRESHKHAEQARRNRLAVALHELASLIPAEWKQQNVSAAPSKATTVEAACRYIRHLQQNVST

Sequence	relative binding free energy
AGGAGCACGTGATGGG	0.05 kcal/mol
GTATTCACGTGTTATG	0.3 kcal/mol
TTTGGCACGTGTAAAG	0.11 kcal/mol
GTGAACACGTGTTTTA	-0.06 kcal/mol
GGTTCCACGTGTTGGG	0.25 kcal/mol
TCCGGCACGTGTTGTT	-0.09 kcal/mol
AGCGGCACGTGGGGTA	-0.19 kcal/mol
GTCAGCACGTGGGGAT	-0.09 kcal/mol
GTAGGCACGTGCATGC	0.06 kcal/mol
TTGGTCACGTGTGCGG	0.22 kcal/mol
TCTGACACGTGGGGTG	-0.19 kcal/mol
TTTATCACGTGTTACT	0.12 kcal/mol
AGTGTCACGTGACGTA	0.18 kcal/mol
AGTTACACGTGCGGGC	0.29 kcal/mol
ATTAGCACGTGGGACG	-0.21 kcal/mol
TGTAACACGTGGGTCA	-0.24 kcal/mol
AAGGGCACGTGTGAAG	0.04 kcal/mol
GTTGTCACGTGCTAGT	0.04 kcal/mol
TGTAACACGTGCAGTG	-0.17 kcal/mol
TTGGTCACGTGCTGAA	0.07 kcal/mol
TTGTGCACGTGAGTTC	0.13 kcal/mol
CATGTCACGTGTTAAT	0.05 kcal/mol
AGGGCCACGTGGGTTG	-0.23 kcal/mol
CAGGACACGTGTCGGT	0.13 kcal/mol
AGTTGCACGTGGTTAC	-0.04 kcal/mol

Sequence	relative binding free energy
TGAGGCACGTGTGATT	-0.03 kcal/mol
TTAGGCACGTGGTTCG	-0.13 kcal/mol
CATTGCACGTGAGAGG	0.2 kcal/mol
GTTGCCACGTGTTATT	0.15 kcal/mol
GAGGTCACGTGATTAA	0.33 kcal/mol
GGGGTCACGTGTCAGG	0.21 kcal/mol
ATAATCACGTGTTCTG	0.1 kcal/mol
TGCGTCACGTGGGAGT	-0.01 kcal/mol
TGCATCACGTGTTGTA	0.09 kcal/mol
AGAATCACGTGGATTT	0.23 kcal/mol
TTTTGCACGTGGACGG	0.01 kcal/mol
AAGGACACGTGGTAAG	0.04 kcal/mol
TGGATCACGTGTATGG	0.25 kcal/mol
CGGGGCACGTGAGGTA	0.21 kcal/mol
TCTGGCACGTGAGGGA	0.15 kcal/mol
AAGTTCACGTGGACTG	0.33 kcal/mol
TGGTTCACGTGTATGT	0.33 kcal/mol
CATTGCACGTGGGTTT	-0.12 kcal/mol
ATAGGCACGTGCAGGG	-0.21 kcal/mol
AATGTCACGTGTAAAT	0.31 kcal/mol
TGTAGCACGTGACGTG	-0.03 kcal/mol
CTGAACACGTGGGAGG	0 kcal/mol
ACGGACACGTGTATGT	0.06 kcal/mol
TTGCGCACGTGATGGG	0.12 kcal/mol
GAGAGCACGTGGCAGT	-0.07 kcal/mol

Sequence	relative binding free energy
TATTACACGTGGTGTA	-0.05 kcal/mol
CAGGGCACGTGGACGG	-0.08 kcal/mol
GTCCGCACGTGTTGTT	-0.02 kcal/mol
TTACACACGTGAGTTG	0.2 kcal/mol
TATGTCACGTGGGCCG	0.12 kcal/mol
TTTAGCACGTGGAGCT	-0.08 kcal/mol
ATGGACACGTGTCAGT	0.03 kcal/mol
GGGGTCACGTGGCTGG	0.14 kcal/mol
TATAGCACGTGGTGCG	-0.11 kcal/mol
TGTAACACGTGTGAGC	0.1 kcal/mol
CTGATCACGTGGTTGT	0.12 kcal/mol
GTATACACGTGTCGGG	0.05 kcal/mol
GTGAGCACGTGCTGTG	-0.17 kcal/mol
ACATTCACGTGGGGTT	0.14 kcal/mol
TGAATCACGTGGGCGT	0.09 kcal/mol
CTTATCACGTGTTTAA	0.03 kcal/mol
GTTGGCACGTGTATCA	0 kcal/mol
GTATTCACGTGGTGCG	0.24 kcal/mol
AGGTACACGTGAGCGC	0.36 kcal/mol
CGTGTCACGTGCTGTA	0.12 kcal/mol
GTGGTCACGTGGGTGT	-0.01 kcal/mol
GCGGACACGTGAAGGG	0.35 kcal/mol
GTACACACGTGATGGT	0.24 kcal/mol
GTTAACACGTGGAATG	0.13 kcal/mol
GGGTGCACGTGTTCGA	0.04 kcal/mol

Sequence	relative binding free energy
AGTATCACGTGTAATA	0.21 kcal/mol
GTTGACACGTGCTGTA	-0.04 kcal/mol
TTGTACACGTGGGGAC	-0.18 kcal/mol
GGGCGCACGTGGCAGG	-0.19 kcal/mol
GTGTCCACGTGGGCTT	-0.1 kcal/mol
TGCAGCACGTGTTAAT	-0.01 kcal/mol
AGTGTCACGTGTCGTA	0.1 kcal/mol
GTTTTCACGTGGCCGT	0.26 kcal/mol
GAGTGCACGTGCGAGG	0.08 kcal/mol
TAAAACACGTGGATGT	0.04 kcal/mol
GATAGCACGTGGTGCT	-0.04 kcal/mol
TGTGACACGTGGCTCT	0.09 kcal/mol
TAAGTCACGTGTAAAA	0.25 kcal/mol
GTATTCACGTGACTTT	0.24 kcal/mol
TGACTCACGTGGGTGG	-0.01 kcal/mol
TCTAGCACGTGTCGGG	-0.08 kcal/mol
GGTGACACGTGTCGAT	0.09 kcal/mol
GTAAGCACGTGATGAG	0.12 kcal/mol
ACGGGCACGTGGAGTT	-0.03 kcal/mol
GTGTACACGTGAAAGG	0.19 kcal/mol
TTTTGCACGTGCCAGT	-0.18 kcal/mol
ATGCTCACGTGGTGTT	0.18 kcal/mol
GGGTTCACGTGTTTAG	0.2 kcal/mol
GTGTTCACGTGAGGTT	0.46 kcal/mol
ACGGTCACGTGTGGAT	0.21 kcal/mol

Sequence	relative binding free energy
GTGTCCACGTGCTGTG	0.16 kcal/mol
AATGTCACGTGATGTG	0.15 kcal/mol
ATAATCACGTGGGCGA	0.11 kcal/mol
TTCTGCACGTGTACGT	0.05 kcal/mol
ATATTCACGTGCGCGG	0.13 kcal/mol
CATTGCACGTGGAGTT	-0.02 kcal/mol
AAATTCACGTGTTTGA	0.28 kcal/mol
TGGCTCACGTGTAGAG	0.19 kcal/mol
GCTTGCACGTGAAGGG	0.28 kcal/mol
TGATCCACGTGTGGGA	0.3 kcal/mol
AAGTGCACGTGTTGAT	0.13 kcal/mol
AAGGACACGTGTAGTT	0.08 kcal/mol
TAATACACGTGCTGGG	-0.12 kcal/mol
GATGTCACGTGGGCGG	0.04 kcal/mol
AGAGACACGTGTTGGT	0.15 kcal/mol
AGGTTCACGTGGTTCA	0.21 kcal/mol
GTTTGCACGTGGAAGG	0.21 kcal/mol
TGGGGCACGTGTGATG	0.01 kcal/mol
AGGTTCACGTGGGTAG	0.18 kcal/mol
GGTTACACGTGACGGG	0.22 kcal/mol
TACCTCACGTGTGTTT	0.37 kcal/mol
TCTATCACGTGGGAGA	0.21 kcal/mol
ATTATCACGTGGGTGC	-0.03 kcal/mol
CGGGGCACGTGGGCGC	-0.33 kcal/mol
AATTGCACGTGATTGA	0.03 kcal/mol

Sequence	relative binding free energy
ATCTTCACGTGGTGGG	0.27 kcal/mol
AGGGTCACGTGGAGGC	0.06 kcal/mol
ATTTCCACGTGGATGG	-0.01 kcal/mol
TGGCACACGTGTAGGC	0.12 kcal/mol
ATTGTCACGTGTAGTA	0.08 kcal/mol
GGCGTCACGTGTTGGG	0.17 kcal/mol
ACTTGCACGTGGTATG	-0.13 kcal/mol
GTAACCACGTGGGGGA	-0.08 kcal/mol
GACGGCACGTGGTGGG	-0.04 kcal/mol
GGCGGCACGTGGACCG	0.01 kcal/mol
TAGGGCACGTGTATCG	-0.01 kcal/mol
GTGGTCACGTGTATCA	0.17 kcal/mol
CGTAGCACGTGGCGGC	-0.12 kcal/mol
AGGGGCACGTGCGGAG	-0.3 kcal/mol
GTTGTCACGTGGGCCT	-0.07 kcal/mol
AGGGGCACGTGCAATA	-0.02 kcal/mol
TGGAACACGTGGTTAT	0.09 kcal/mol
ATGGGCACGTGTTAGG	-0.08 kcal/mol
CGTTGCACGTGGGCTA	-0.16 kcal/mol
GTGGTCACGTGTGCCG	-0.06 kcal/mol
TGTGCCACGTGTCTGG	-0.04 kcal/mol

Reference: the BET-seq Pho4 binding data (Le et al. 2018)
